According to PubChem BioAssay (NCI):
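Five compound concentrations were applied to cells in 96-well plates for 48 hours; endpoints were derived by simple linear interpolation of the resulting dose-response curve. GI50: concentration for 50% inhibition of growth. TGI: total growth inhibition.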

Tested on: NCI-H322M lung
Experiment: inhibition of tumour cell growth, NCI panel, 48 h

How did the GI50 turn out when `Cn1cc(-c2nc(N)nnc2-c2c[nH]c3ccccc23)c2cc(Br)ccc21` was run?
The GI50 was 3.95 µM.

And the TGI?
Its TGI is 19.8 µM.
